Laboratory results taken from the RNAGym collection of RNA variant scans (doi:10.7554/elife.90254).
The source gives no read counts; variants with many changes may rest on few reads.

B1: LINE1-mini (parent)
chain: GGCAGAGCUCAACACAGCGUGGCAAAGUGGCUGUGGCUAGACUGCC

Variants of: B1
Assay: self-cleavage, relative activity (ratio to wild type); higher = more cleavage; in vitro, sequencing; the parent is a self-cleaving ribozyme

| Variant | self-cleavage |
| --- | --- |
| A4U A14U G21A G29A | 0.12 |
| A4G U28G C31U G33U U43G | 0.08 |
| A4U G5U C15A | 0.07 |
| A4G C13A C18U G33A C37G | 0.01 |
| A4U A11U C13U A26C G29U | 0.04 |
| A4G C13A A26C U34G | 0.31 |
| A4U G17A U32C | 0.12 |
| A4G C31G C37U U38C | 0.05 |
| A4G C10A C31U | 0.02 |
| A4G G7C A11G C13A G19C G21C U28C A41C | 0.02 |
| A4G G30A G35C C46U | 0.02 |
| A4G G5U G33C C46G | 0.02 |
| A4U A6C G29C U32G U38C U43C | 0.01 |
| A4G G30U C37A | 0.06 |
| A4U A12C G40U | 0.03 |
| A4G C15U C42A U43A | 0.05 |
| A4U G19U C42G | 0.01 |
| A4G C13U G29U | 0.1 |
| A4G G22A U34C | 0.09 |
| A4U G22U G27U | 0.25 |
| A4U A16G C37A | 0.17 |

| Variant | self-cleavage |
| --- | --- |
| A4G G21U A26G | 0.3 |
| A4G U28A G40A | 0.03 |
| A4U C8U G17A G29U A39U G40U C45A | 0.04 |
| A4G C10A G36C | 0 |
| A4U G19U G36U | 0.03 |
| A4U C8G C31U | 0.02 |
| A4G G27U U32A | 0.56 |
| A4G A16C G17C C37A G40U | 0.04 |
| A4G G22U U32G G44U | 0.3 |
| A4G G19A C37A | 0.04 |
| A4U C8U C10G A11G C46A | 0.02 |
| A4U G21A G29U U32C G40C | 0.01 |
| A4U A12C A14G U28G | 0 |
| A4U G21U G30C | 0.12 |
| A4U G5C A6U U34C | 0.08 |
| A4G U34G G36C | 0.02 |
| A4G C42U U43G | 0.04 |
| A4G A12G A39U | 0.01 |
| A4U A14G G19C A24U U28G U32A | 0.05 |
| A4G G7A C10G A39C | 0.01 |
| A4G A14C G21C G40C | 0.04 |

| Variant | self-cleavage |
| --- | --- |
| A4G G5U C10G | 0.05 |
| A4G G5U C10U | 0.03 |
| A4G A26G U32G | 0.01 |
| A4U C10A G19U G27U | 0.03 |
| A4G U20C G27U | 0.09 |
| A4G G17A G22C C23A U28C G30U | 0.1 |
| A4U C8G A12G U32G G33A | 0.05 |
| A4G G5U A11U U20G G30A C31U | 0.01 |
| A4U C15A C42U C46A | 0.02 |
| A4U C8G G17A C23A A39C C45G | 0.05 |
| A4G C18U G29A C37U | 0.01 |
| A4U G7C C13U C23A G44C | 0.05 |
| A4U A12G C18G G19A G27U U28A | 0.01 |
| A4G G19C A41C | 0.02 |
| A4U A11G C46U | 0.05 |
| A4G A14C A16C | 0.02 |
| A4G A12U U20C | 0.02 |
| A4G C8A A16U G17U C18G | 0.28 |
| A4G C10U A11G | 0.05 |
| A4G A12U A26G | 0.03 |
| A4U G21C A39U | 0.04 |

| Variant | self-cleavage |
| --- | --- |
| A4U G5U U9A C18A G22U A26C | 0.12 |
| A4G A24G A39G | 0.07 |
| A4G G5U C15G C18U A41C C45U | 0.01 |
| A4U G5U C8G A26C C31U | 0.01 |
| A4U G5C C31A | 0.07 |
| A4G C8G C42A | 0.01 |
| A4U G22C A24C | 0.06 |
| A4U G7U G19A A26G G35C | 0.02 |
| A4G C8U G33C A41U | 0.03 |
| A4U C15U G22A C23U G33A A39U | 0.16 |
| A4G C8U U38G | 0.09 |
| A4U C13A G33U C45A | 0.09 |
| A4G U9A C31U U32A | 0.19 |
| A4U G19U U32G U34G A41C U43A | 0.02 |
| A4U A6C G36U C37U | 0.03 |
| A4G G21C U38A G40A | 0.01 |
| A4U C8A G21C | 0.02 |
| A4U A24U G35A | 0.08 |
| A4U A12U A16C A26U U38A C45G | 0.02 |
| A4G A16U G17U G33U | 0.15 |
| A4U G5C A6C C37A | 0.14 |
